Data as given in PubChem BioAssay AID588855 (National Center for Advancing Translational Sciences (NCATS), 2011).
“And” between values parts separate entries of the source, which are not always exact repeats. Equal values may be shown once. Out of some 410,000 compounds screened, about 5,000 (1.2%) were called active. Inconclusive results, whose numbers are uncertain, are shown with a selection of clear calls. Calls follow the shape of the dose curve; as a rule, active = well fitted inhibition curve with a large enough effect; inconclusive = small, poorly fitted or top-dose-only effect; inactive = no such curve, though single readings can be large or run the other way. Potencies of inconclusive entries are doubtful fits and often do not repeat.

Test: qHTS for Inhibitors of TGF-b; also: nearly all actives have a fitted effect of over 65% in size
Settings: HepG2 CAGA-GFP TGF-b/SMAD3 reporter, GFP fluorescence, 18 h, TGF-beta stimulated, 500 pg/mL final; series mostly up to 46.1 µM; activity, negative = inhibition: at the top concentration
Method in brief: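 TGF-beta reporter screen: HEPG2 CAGA-GFP, 1% FBS, 500 pg/mL TGF-beta final, 18 h; per-cell GFP summed per well; curves fitted and categorized by class.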
% is scaled to controls: 0 for no effect and ±100 for the full control effect; potency is read from the fitted curve at half-maximal effect; tags tell the direction and shape of the fitted curve.

Row | SMILES | Potency | activity, negative = inhibition
1 | Fc1cccc(Cc2c(-c3ccco3)nc3ccc(Cl)cn23)c1 | inconclusive: 11.2 µM [inhibitor, partial curve, poor fit] | 
2 | CCCCCOC(=O)C1=C(C)Nc2nnnn2C1c1ccccc1Cl (stereo not given) | inconclusive: 35.5 µM [inhibitor, single point] | 
3 | CCCOc1ccc(F)cc1-c1cc(C(=O)NCc2cccs2)[nH]n1 | inconclusive: 20 µM [inhibitor, partial curve, poor fit] | 
4 | O=C(COCc1cc(-c2ccc3c(c2)OCO3)on1)NCc1ccccc1Cl |  | inactive: -9.95%
5 | COc1cccc(/C(C)=N/N=C(\C)c2cccc(OC)c2)c1 | inconclusive: 14.1 µM [inhibitor, partial curve] | 
6 | O=C(CCS(=O)(=O)c1ccccc1)Nc1ncc([N+](=O)[O-])s1 | active: 15.8 µM | 
7 | Cc1cnc(C(=O)OCC(=O)N2CCN(C(=O)c3ccco3)CC2)cn1 | inconclusive: 35.5 µM [inhibitor, single point] | 
8 | CCN(c1ccccc1)S(=O)(=O)c1ccc(C(=O)N(CCCN(C)C)c2nc3cc4c(cc3s2)OCO4)cc1 | active: 22.4 µM | 
9 | Oc1ccc(Br)cc1-c1cc(-c2ccco2)[nH]n1 | inconclusive: 35.5 µM [inhibitor, single point] | 
10 | Fc1ccccc1CNC(=S)NCc1ccc(Cl)cc1 | inconclusive: 11.2 µM [inhibitor, partial curve] | 
11 | O=C(CSc1nnc(CNC(=O)c2ccccc2)o1)NCCc1ccccc1 | inconclusive: 35.5 µM [inhibitor, single point] | 
12 | CN(Cc1c(F)cccc1Cl)C(=O)c1cccc(S(=O)(=O)NCc2ccccc2)c1 |  | inactive: -2.06%
13 | CSc1ccc(S(=O)(=O)NCC(=O)OCC(=O)N2CCCC2=O)cc1[N+](=O)[O-] | inconclusive: 31.6 µM [inhibitor, single point] | 
14 | CC(C)[C@H](NS(=O)(=O)c1cccc(Cl)c1)C(=O)OCC(=O)N1CCN(c2ccccc2)CC1 |  | inactive: -5.62%
15 | CCCCN(C)CCNC(=S)Nc1ccc2nc(N3CCN(CC)CC3)cc(C)c2c1 |  | inactive: -25.6%
16 | CCN(CC(=O)Nc1ccccc1OC)C(=O)c1cc(S(=O)(=O)N2CCCCCC2)ccc1OC | inconclusive: 35.5 µM [inhibitor, single point] | 
17 | CC1SC(c2ccc(Cl)cc2Cl)NC1=O (stereo not given) | inconclusive: 6.31 µM [inhibitor, single point] | 
18 | CCO[C@H]1OC(C(=O)N2CCN(Cc3ccc4c(c3)OCO4)CC2)=C[C@@H](c2csc3ccccc23)[C@@H]1CCCO | inconclusive: 10 µM [inhibitor, single point] | 
19 | NNC(=O)c1ccc(CSc2cccc3cccnc23)cc1 |  | inactive: -24%
20 | COc1ccc(-c2noc(CCC(=O)Nc3cc(Cl)c(OC)cc3OC)n2)cc1 | inconclusive: 0.891 µM [inhibitor, full curve, poor fit] | 
21 | CCOc1ccc(NC(=O)CN2C(=O)COc3ccc(S(=O)(=O)NC4CCCC4)cc32)cc1 | inconclusive: 35.5 µM [inhibitor, single point] | 
22 | COCCCNC(=O)CSc1nc2cc3c(cc2c(=O)n1CCCC(=O)NCc1ccc(OC)cc1)OCO3 | inactive | 

Row | SMILES | Potency | activity, negative = inhibition
23 | Cc1cccc(NC(c2ccc(O)cc2)c2ccc3ccc(C)nc3c2O)n1 (stereo not given) | inconclusive: 35.5 µM [inhibitor, single point] | 
24 | Cc1ccc2c(c1)c1c3n2CCN(C(=O)CCl)C3CCC1 (stereo not given) | inconclusive: 22.4 µM [inhibitor, single point] | 
25 | Cc1ccn2c(NC(=O)c3ccco3)c(-c3ccccc3)nc2c1 |  | inactive: -18.2%
26 | Cc1ccc(C(=O)c2cc([N+](=O)[O-])ccc2N2CCCCC2)cc1 | inconclusive: 3.16 µM [inhibitor, single point] | 
27 | O=C(N/N=C/c1ccncc1)c1ccccc1 |  | inactive: 16.7%
28 | CCN(CC)c1nc(C(F)(F)F)nc2c1nnn2Cc1ccccc1 | inconclusive: 25.1 µM [inhibitor, partial curve, poor fit] | 
29 | COc1ccc(CCNC(=O)CSc2ccc(-c3ccco3)nn2)cc1 | inconclusive: 12.6 µM [inhibitor, partial curve, poor fit] | 
30 | O=C(NC(=S)N1CCN(c2ccc([N+](=O)[O-])cc2Cl)CC1)c1ccco1 | inconclusive: 5.62 µM [inhibitor, single point] | 
31 | CN(CC(=O)Nc1ccc(Cl)c(C(F)(F)F)c1)C(=O)C1CCN(C(=O)c2ccc(Cl)cc2)CC1 | inconclusive: 35.5 µM [inhibitor, single point] | 
32 | CC1Cc2cc(S(=O)(=O)NCCc3ccccc3)ccc2N1C(=O)C1CCC1 (stereo not given) | inconclusive: 20 µM [inhibitor, single point] | 
33 | Clc1cccc(Cl)c1/C=N/Nc1c(Cl)cncc1Cl |  | inactive: -6.57%
34 | COc1cc(CC(=O)NCc2cccs2)cc(OC)c1OC | inconclusive: 35.5 µM [inhibitor, single point] | 
35 | Cc1ccccc1N=C1NN=C(c2ccccc2F)CS1 | inconclusive: 28.2 µM [inhibitor, single point] | 
36 | CCOC(=O)c1cnc2ccc(C(=O)OC)cc2c1Nc1cccc(C(=O)O)c1 |  | inactive: 18.5%
37 | CCC(=O)NC(c1ccc(C)cc1)c1cc([N+](=O)[O-])c2cccnc2c1O (stereo not given) | inconclusive: 35.5 µM [inhibitor, single point] | 
38 | CC(C)c1ccc(/C=N/NC(=O)c2cc(-c3cccc([N+](=O)[O-])c3)n[nH]2)cc1 | inconclusive: 2 µM [inhibitor, full curve, poor fit] | 
39 | CC(C)[C@H](NC(=O)NCCC1=CCCCC1)C(=O)O | inconclusive: 3.16 µM [inhibitor, single point] | 
40 | COc1ccccc1CNC(=O)CCC1N=C2c3ccccc3N=C(SCc3ccc(C)cc3)N2C1=O (stereo not given) | inconclusive: 35.5 µM [inhibitor, single point] | 
41 | CN(C)c1ccc(NC(=O)Cn2cc(S(=O)(=O)Cc3cccc(Cl)c3)c3ccccc32)cc1 |  | inactive: 0%
42 | Brc1ccc(CN2CC[C@H]3C=CCc4cccc(c43)C2)cc1 | inconclusive: 35.5 µM [inhibitor, single point] and inconclusive: 6.31 µM [inhibitor, full curve, poor fit] | 
43 | Cc1nc2scc(C)n2c(=O)c1S(=O)(=O)N1CCN(c2cccc(C(F)(F)F)c2)CC1 | inconclusive: 35.5 µM [inhibitor, single point] | 
44 | CCN1C/C(=C\c2cc(OC)c(OC)c(OC)c2)C2=NN(c3ccccc3)C(c3cc(OC)c(OC)c(OC)c3)C2C1 (stereo not given) |  | inactive: -8.64%

Row | SMILES | Potency | activity, negative = inhibition
45 | OCCCNc1cc(-c2ccccc2)nc2cc(-c3ccc(F)cc3)nn12 | inconclusive: 10 µM [inhibitor, partial curve] | 
46 | CCOC(=O)c1cc(S(=O)(=O)N2CCN(c3ccc(C)cc3C)CC2)[nH]n1 | inconclusive: 25.1 µM [inhibitor, single point] | 
47 | O=C(C1CCCN(S(=O)(=O)c2cccc3nsnc23)C1)N1CCN(c2ccccc2Cl)CC1 (stereo not given) | active: 14.1 µM | 
48 | Cc1cccc(N(C)c2ccc3cc(S(=O)(=O)N4CCCC4)ccc3n2)c1 | inconclusive: 12.6 µM [inhibitor, single point] | 
49 | CSC1=NC(C)(C)C=C(/C=C/c2ccc(Cl)cc2Cl)N1 | inconclusive: 14.1 µM [inhibitor, single point] | 
50 | CCC(=O)NC(=S)Nc1ccc(NC(=O)COc2ccc(Cl)c(C)c2)cc1 | inconclusive: 11.2 µM [inhibitor, partial curve, poor fit] | 
51 | O=C(/C=C/c1ccc2c(c1)OCO2)c1ccc(F)cc1 | inconclusive: 2.51 µM [inhibitor, single point] | 
52 | Clc1ccccc1/C=C/C=N/Nc1nc(N2CCOCC2)nc(N2CCOCC2)n1 |  | inactive: 8.62%
53 | CCOCCCN(C(=O)Cn1nnc2ccccc21)C(C(=O)NCc1ccco1)c1ccncc1 (stereo not given) | inconclusive: 0.708 µM [inhibitor, full curve, poor fit] | 
54 | CCOC(=O)N/N=C\c1ccc([N+](=O)[O-])s1 | active: 22.4 µM | 
55 | COc1cc(C(=O)N2CCc3c([nH]c4ccccc34)C2c2ccc(C)cc2)cc(OC)c1OC (stereo not given) | inconclusive: 20 µM [inhibitor, partial curve, poor fit] | 
56 | Nc1c(-c2nc(-c3ccc4c(c3)OCO4)cs2)c2ccccn2c1C(=O)c1ccccc1 |  | inactive: -0.867%
57 | CN1CCN(Cn2cc(/C=C/C(=O)c3ccccc3)c3ccccc32)CC1 | active: 12.6 µM | 
58 | Cc1ccc(S(=O)(=O)Nc2ccc3c(c2)OCCO3)cc1 | inconclusive: 35.5 µM [inhibitor, single point] | 
59 | Cn1c2ccccc2c2nnc(SCC(=O)Nc3cccc(O)c3)nc21 |  | inactive: -1.38%
60 | CC(C)N1CCc2c(sc(NC(=O)c3ccc(S(=O)(=O)N4CCc5ccccc54)cc3)c2C(N)=O)C1 | inconclusive: 22.4 µM [inhibitor, single point] | 
61 | Cc1c(-c2nsc(NC(=O)c3cccc(Cl)c3)n2)nnn1-c1ccccc1C(F)(F)F | inconclusive: 11.2 µM [inhibitor, partial curve, poor fit] | 
62 | COc1ccccc1N1CCN(CC(O)COc2c(OC)cccc2OC)CC1 (stereo not given) |  | inactive: -0.968%
63 | CCOc1ccc(CCNC(=O)CCc2c(C)nc3cc(-c4ccccc4OC)nn3c2C)cc1 | inconclusive: 35.5 µM [inhibitor, single point] | 
64 | Cc1cc(Nc2ccccc2)c2c([N+](=O)[O-])c(C)cc(C)c2n1 | inconclusive: 35.5 µM [inhibitor, single point] | 
65 | COc1ccc(C)cc1-n1nnnc1SCc1cn2ccsc2n1 | inconclusive: 14.1 µM [inhibitor, single point] | 
